Data as given in a compilation of properties of binary mixtures (doi:10.1016/j.cjche.2018.02.001).
Some of these densities may be calculated back from excess volumes.

Assay: xn = mol fraction of the nth substance listed
Conditions: 100 kPa

CCCCCCCC[n+]1ccn(C)c1.O=S(=O)([O-])C(F)(F)F + O=S(=O)(O)O
mass density [kg/m3]
Conditions | 293.2 K | 298.2 K | 303.2 K | 308.2 K | 313.2 K
x1 = 0.0029 | 1825 | 1821 | 1816 | 1811 | 1805
x1 = 0.0086 | 1806 | 1802 | 1798 | 1793 | 1787
x1 = 0.0147 | 1787 | 1783 | 1779 | – | 1768
x1 = 0.0305 | 1741 | 1737 | 1732 | 1728 | 1722
x1 = 0.1001 | 1581 | 1577.2 | – | 1568.7 | 1564
x1 = 0.2 | 1439.9 | 1436.1 | 1432.1 | 1428.3 | 1424.1
x1 = 0.3001 | 1360.2 | – | 1352.8 | 1349.1 | 1345
x1 = 0.4001 | 1314 | – | 1306.9 | – | 1299.1
x1 = 0.4999 | 1284.2 | 1280.7 | 1277.3 | 1273.6 | 1269.4
x1 = 0.5999 | 1260.2 | 1256.8 | 1253.5 | – | –
x1 = 0.7 | 1237.2 | – | – | – | 1222.8
x1 = 0.8001 | 1214.8 | 1211.3 | 1208 | 1204.5 | 1200.6
x1 = 0.8974 | 1197.2 | 1193.7 | 1190.5 | 1186.9 | 1183.4
x1 = 1 | – | – | 1184.7 | – | 1177.6

CCCCCC[n+]1ccn(C)c1.O=S(=O)([O-])C(F)(F)F + O=S(=O)(O)O
mass density [kg/m3]
Conditions | 293.2 K | 298.2 K | 303.2 K | 308.2 K | 313.2 K
x1 = 0.0032 | 1825 | – | – | 1812 | 1806
x1 = 0.0095 | 1808 | 1804 | 1800 | 1795 | 1789
x1 = 0.0193 | 1783 | – | 1774 | 1769 | 1763
x1 = 0.0333 | 1748 | 1744 | 1740 | 1735 | 1730
x1 = 0.0999 | 1616 | 1612 | 1608 | 1604 | 1599
x1 = 0.2004 | – | 1482.8 | – | 1474.9 | 1470.7
x1 = 0.3 | – | 1406.6 | – | 1399 | 1395
x1 = 0.4001 | 1363.5 | 1359.8 | 1355.9 | 1352.2 | 1348.3
x1 = 0.5 | 1332.4 | 1328.7 | 1324.9 | 1321.2 | –
x1 = 0.5999 | 1308.1 | – | 1300.7 | 1297 | 1292.7
x1 = 0.7 | – | – | – | – | 1270.5
x1 = 0.8001 | 1265.1 | 1261.5 | 1257.8 | 1254.1 | 1249.5
x1 = 0.9001 | 1247.5 | – | 1240.4 | 1236.6 | –
x1 = 1 | – | – | 1231.6 | 1227.6 | 1222.7

CCCC[n+]1ccn(C)c1.O=S(=O)([O-])C(F)(F)F + O=S(=O)(O)O
x1 = 1
Conditions | mass density [kg/m3]
298.2 K | 1299.2
303.2 K | 1295.7
308.2 K | 1291.3
313.2 K | 1286.9
